# PMC4336329 (PLoS ONE, 2015)
# Out of some 310,000 compounds screened, about 14,000 (4.5%) showed an effect of 50% or more. The effect is printed as a negative number. The list shows a part of the results.
# Biological target: human ether-à-go-go-related gene (hERG) potassium channel (human, UniProt Q12809)
# Assay: primary screen, population patch clamp on CHO cells stably expressing hERG
# 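Note: peak tail current of the secondary pulse compared with the same well before compound.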
# Sequence of human ether-à-go-go-related gene (hERG) potassium channel (Q12809 whole entry, looked up): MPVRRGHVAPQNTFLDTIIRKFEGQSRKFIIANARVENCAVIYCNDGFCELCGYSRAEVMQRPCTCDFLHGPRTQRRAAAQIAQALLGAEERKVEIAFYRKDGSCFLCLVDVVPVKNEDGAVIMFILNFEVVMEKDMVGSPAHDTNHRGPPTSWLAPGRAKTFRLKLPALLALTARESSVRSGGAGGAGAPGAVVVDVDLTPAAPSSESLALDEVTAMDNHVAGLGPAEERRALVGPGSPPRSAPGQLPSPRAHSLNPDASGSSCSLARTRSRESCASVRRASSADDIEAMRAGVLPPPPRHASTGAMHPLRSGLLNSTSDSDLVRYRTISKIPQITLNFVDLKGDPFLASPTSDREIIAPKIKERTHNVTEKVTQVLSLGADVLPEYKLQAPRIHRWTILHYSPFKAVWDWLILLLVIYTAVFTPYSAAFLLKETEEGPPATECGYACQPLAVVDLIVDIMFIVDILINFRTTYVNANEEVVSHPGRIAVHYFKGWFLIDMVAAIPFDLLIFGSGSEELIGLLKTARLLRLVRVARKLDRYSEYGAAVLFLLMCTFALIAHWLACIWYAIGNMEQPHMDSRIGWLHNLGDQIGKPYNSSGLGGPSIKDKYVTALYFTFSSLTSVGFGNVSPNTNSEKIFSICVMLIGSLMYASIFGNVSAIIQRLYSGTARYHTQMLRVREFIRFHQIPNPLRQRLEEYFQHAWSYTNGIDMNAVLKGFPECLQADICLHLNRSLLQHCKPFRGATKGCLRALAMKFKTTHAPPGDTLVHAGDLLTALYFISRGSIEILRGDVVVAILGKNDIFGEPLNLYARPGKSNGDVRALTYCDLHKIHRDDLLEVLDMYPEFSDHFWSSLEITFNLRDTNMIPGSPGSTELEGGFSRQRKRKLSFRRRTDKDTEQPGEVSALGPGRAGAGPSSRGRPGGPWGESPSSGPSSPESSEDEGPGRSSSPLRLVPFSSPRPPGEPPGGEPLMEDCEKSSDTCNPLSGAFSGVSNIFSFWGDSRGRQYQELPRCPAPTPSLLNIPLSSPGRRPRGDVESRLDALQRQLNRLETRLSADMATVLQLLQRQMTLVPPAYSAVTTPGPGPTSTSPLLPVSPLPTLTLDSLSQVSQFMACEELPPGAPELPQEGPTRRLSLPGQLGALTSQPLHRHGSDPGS
row,SMILES,"hERG current change (%, negative = inhibition) at 10uM"
1,CC(=O)Nc1ccc(NC2CCCCC2NS(=O)(=O)c2ccc(Cl)cc2)cc1 (stereo not drawn),10.9%
2,COc1ccc2cc(CCNC(=O)C3CCCC3)c(=O)[nH]c2c1,1.96%
3,COC(=O)/C(=N/Nc1cccc(C)c1)N1CCCc2ccccc21,5.91%
4,COC/C=C/C1=CC(=O)C[C@H](c2ccc3c(c2)OCO3)C1,-8.31%
5,CSc1nc(-c2ccc(Cl)cc2)nn1C(=O)c1ccccc1,-0.831%
6,O=C(CSc1nnc(-c2ccc(OC(F)F)cc2)o1)N1CCOCC1,-57%
7,O=C(Oc1ccc2ccccc2c1)c1ccco1,5.27%
8,Cc1nc2ccc(C(=O)N3CCCC(CO)(Cc4ccc(F)cc4F)C3)cc2nc1C (stereo not drawn),-6.98%
9,CCOC(=O)c1nn(-c2ccccc2)c(C#N)c1N,-4.91%
10,O=C(CCC1COc2ccccc2O1)Nc1ccc(Cl)cn1 (stereo not drawn),-15%
11,O=C(CC1SC(=NCC2CCCO2)NC1=O)Nc1cc([N+](=O)[O-])ccc1Cl (stereo not drawn),0.256%
12,O=C(c1ccc(S(=O)(=O)NCC2CCCO2)cc1)N1CCN(c2ccccc2)CC1 (stereo not drawn),-11.3%
13,COCCN1Cc2cccc(C(=O)Nc3cc(C)cc(C)c3)c2C1=O,-7.56%
14,Fc1ccc(CSc2ncnc3nc[nH]c23)cc1,10.1%
15,COc1ccc(C(=O)c2c(C)c3ccccc3n2CC(O)CNC(C)C)cc1.Cl (stereo not drawn),-43.4%
16,O=C(N/C(=C/c1cccnc1)C(=O)N1CCCCCC1)c1ccccc1,12.3%
17,COc1ccc(OC)c(C2CC(c3c(-c4ccccc4)c4cc(Cl)ccc4[nH]c3=O)=NN2S(C)(=O)=O)c1 (stereo not drawn),12.5%
18,CC(C)=CCCC(C)CN1CCC(N2CCC(C(=O)N3CCCC3)CC2)CC1 (stereo not drawn),-74.8%
19,Cc1noc(C)c1S(=O)(=O)Nc1ccc(O)c2c(=O)cc(-c3ccccc3Cl)oc12,-13.2%
20,COc1cccc2c(=O)c3ccoc3n(C)c12,-0.434%
21,Cn1c(=O)c2c(nc(SCCCC#N)n2Cc2c(F)cccc2Cl)n(C)c1=O,-48.2%
22,COc1cc(/C=N/NC(=O)C(C)Nc2n[nH]c(=O)[nH]c2=O)ccc1O (stereo not drawn),3.56%
23,CC(=O)NCN1CCN(CNC(C)=O)CC1,10.4%

row,SMILES,"hERG current change (%, negative = inhibition) at 10uM"
1,Cc1ccc(-c2ccnc3[nH]n(-c4ccccc4)c(=O)c23)cc1,16.9%
2,CCOC(=O)c1cc2sccc2n1CC(=O)Nc1ccc(OC)cc1,-7.6%
3,CCc1cccc2c(C(=S)N3CCOCC3)c[nH]c12,-8.73%
4,CCNc1nc(NCC)n2c(SCC(=O)Nc3cccc(F)c3)nnc2n1,-1.95%
5,CCOc1ccc(NC(=O)CN2CCC(n3cnc4cc(F)ccc43)CC2)cc1,-74.3%
6,Nc1nc(N2C(=O)C3CC=CCC3C2=O)nn1-c1ccccc1 (stereo not drawn),15.8%
7,CCOC(=O)N1CCN(Cc2nc3cc([N+](=O)[O-])ccc3n2CC)CC1,-51.9%
8,COC(=O)/C(=C\c1c[nH]c2ccccc12)NC(C)=O,4.95%
9,CC(C)c1nc(SCC(=O)Nc2ccc(N(C)C)cc2)c2ccccc2n1,20.3%
10,COc1ccc2nc(NC(=O)C3CCCN3S(=O)(=O)c3ccc(C)cc3)sc2c1 (stereo not drawn),6.17%
11,COC(=O)CSc1nc2cc(Cl)ccc2c(=O)n1C1CCCC1,24.3%
12,O=C(NC(=S)Nc1ccc(Cl)c(C(=O)O)c1)c1cccc(COc2ccccc2)c1,6.56%
13,COCCOC(=O)c1sc(=S)n(CCOC)c1N,1.82%
14,O=C(CSc1cccc[n+]1[O-])NC1CCCCCCC1,16.2%
15,CCOC(=O)c1oc2ccccc2c1NC(=O)c1cccc(OC)c1OC,-18.8%
16,CC(C)Oc1ccc(S(=O)(=O)N2CCCCC2)cc1NC(=O)C1=COCCO1,-3.99%
17,O=C(N/N=C/c1cc(Br)c(Br)s1)c1ccncc1,8.49%
18,COCC1CCN(Cc2cn[nH]c2-c2cc3ccccc3o2)C1 (stereo not drawn),-33.7%
19,Cc1onc(-c2ccccc2)c1C(=O)Nc1ccc2c(c1)OCCO2,6.94%
20,NC(=O)CN1C(=O)C(=O)N(Cc2cccc(Cl)c2)C1=O,7.06%
21,Cc1ccccc1C1NC(=S)NC2=C1C(=O)CC(C)(C)C2 (stereo not drawn),18.5%
22,Cc1ccc(S(=O)(=O)N2c3ccc(S(N)(=O)=O)cc3CC2C)cc1 (stereo not drawn),-4.92%
